# Assay results from the supplement of paper PMC12632987.
# In all, about 2,300 sequences were measured (“median log2 fold change of GCK-ALFA target abundance (FLAG IP / Myc IP barcode read proportion)”: median about 0.095, lowest 2% from about -0.47 on). The list shows a part of the results.
# B1: LC3A_28_896 (protein)
# chain: MSALESAEEALKKVKEAVAAGDQEPLVLEVKAPSKEEDTEKLLELLEEIAKEASKLKGVTIVIDIDEDVSEENKNKIIDKAEELEEKYPNVTVIIALPES
# B2: LC3A_28_1336 (protein)
# chain: SIAEKIIEEAEKKIKEVAESGKPEVIEIEIPGSITEEEAKEIMDAILETAKKYKLPKGTAIIINVDADVSQEVLDVLAEGAERIEKEVPGVTVIIALDEE
# B3: LC3A_17_579 (protein)
# chain: SAEVEELYKKALEVLKKAAEFAAKHDEEAAKKLKELIKELEKAKETKDDKEILEKIAELMDEAAEILDELEHLDPEEATLLSMEAEGVAIEAESLLLKLE
# B4: LC3A_28_759 (protein)
# chain: MDVAAEVAAAIAAAKAAAAAGEEAVITITVPAGATQADVDTVIAGLETIAEITKDMESTSIVIDVEAGVSQENIDRLIDKGEEIEKKYPNVTVIFALDED
# B5: LC3A_3_1735 (protein)
# chain: MAARLAAARARLEALGFSPEVIAAALAVVKALLARGFEKAVEVLLAELEELKDLPDDILIAMLEDIKAYVETNDVTEEEVIAKIKEEARIARNEAEIEEL
# B6: LC3A_free_46_2410 (protein)
# chain: YVAEIDVDALAETKEKAEEFAKKIEEAAKEIAKEYGIEVEIEVKISKDEDGTYFVEIEITLEAETKETLEKAVNELIDKIEEIAEELGVSIIISYEISEA
# B7: LC3A_free_46_2401 (protein)
# chain: YKAEILIDALAESREKAEELAKRLKEAAEKIAKKYNAKVEIKVKIEELPDGSVFVEIEIIVEAEDKETIEKFVNDLIEEAEKIAEELGASLIISYEIEEL
# B8: LC3A_3_1390 (protein)
# chain: FEELKKEAEKILKSFGRSEEVIEATKKVLEELEKKGYLEAAKKFVEELKKMKDLSDEILLDFIEDVLNYIKENDWSEEEVVEFIKEEARTAINDHEIIEL
# B9: LC3A_free_46_2341 (protein)
# chain: GKLEVLVDILADTEEKAKKAVEALVKKFKELAKEYGAKLEIEVEISKLEDGSYYAEIKATFSGLTKEQAEAIENEIIDKVDEISEKYGVSAIVSTEFIET
# B10: LC3A_3_1742 (protein)
# chain: MEEKLAEIEKELKELGFSEETIEAALEVVKLLLERGFEEAVKKLLEELKKLKDVDDEILLAMLEDIKRKIETEDLNEEEVIEVIEEEARIARNESEIIEL
# B11: LC3A_28_842 (protein)
# chain: SKTEENIKKALAEAKEAAEKGESKVITLKVYKGDTEEEIDKIIETLEEIAEILKDLPNQAIIIEFEEPIDPEHQDKIIDKAEEIEKKYPNITVIIALPEE
# B12: LC3A_132_273 (protein)
# chain: GEEKAKELKKKIKELIEELKKNKDNLEKVKKLVKEIEKLLKEAEKELSPELVKKVAEYTAELADEVAEEYEAAGKKDQARLVTNLSMYADGIAIEAELKL
# B13: LC3A_132_262 (protein)
# chain: SEELLKEAEEEIFKLIDEIVKLLQEGKNPWPKIVELDKKAEEYAEKLSLEETEKLVEKAKEYAKERFEKELDPNNEEARRALDIIEMLLEGVLIEKELRE
# B14: LC3A_28_1177 (protein)
# chain: NNVEASSAAALAEARAAAAAGEPAVITVHVPGNATQADTDLVNATIREIADILAGIPGSAIVVDVDSGVSQANLDAIMDTGEAVEAEHPDISVIFALDEE
# B15: LC3A_28_1274 (protein)
# chain: SHIEEELKKAREEAKAAVAAKEPQVITITVDGNATEEDIEKVMEAMEEIAELLKDVKDQAIVINVNKGVKQENIDKLADKAEEIEKKYPNVTVILALDED
# B16: LC3A_3_1496 (protein)
# chain: REELLEEARRVLEERGATPEQIEAVLRALERILEKGLEETVRELIRLFRENRDLSPEQILTTVLIVEDEVEEKNLSEEEAIEYARRVLRDVAEIEEIDEE
# B17: LC3A_free_46_2427 (protein)
# chain: VEVTIDLLLEGDDEEVLKKAVEEIKKAAKEIAEKYNAELEIKVEFSKDPDGNHFALIEIKIKTESEEIAEKIANELIDSVEEITEKYGVSSIISVEIIKK
# B18: LC3A_28_1084 (protein)
# chain: SEIEAQLKAAKAALEEAKAAGEEAYLEITVPETATQEDIDKVIKALKEFGELAKDAKKVSVVINLDGKIPQEFIDKLADAAEEIEEKVPNVTVIIALPDE
# B19: LC3A_free_39_2229 (protein)
# chain: SEEELEEAIKKLAELAGLPYEEVREKIEEIQKIAGLTTEQMLEIVKELIEAVEAGADAKEILEEAVKLAKELKEQGKTPEEIFEAILELIRDYRDLVPLD
# B20: LC3A_28_911 (protein)
# chain: SAIEESTERAIAEIEEAAARGEPAVVTLDATHPDVEEAKRLTREALERLREVALKHDGVTIIVDVPGHNYDAISAVADEADEALRKENPSNHIIVALDED
# B21: LC3A_3_1399 (protein)
# chain: FEKIKKEIIEELKKYGKSEEVIKAAKEAFELLEKKGYLKAAETLLEEVKKMENVSDEIMLDFFNEVKKLLETEDLSEEEVVEKIKELAKVALNEQEIIEL
# B22: LC3A_132_291 (protein)
# chain: QQEKAEELKKEIKEIVEEMKENIDDEEKVRKLLEELEKLMKRAEKELSPELLAEVFEELSELLEELSEEFDEAGKEDLALEADSLAIEAASLALRAKEKI
# B23: LC3A_13_333 (protein)
# chain: TIDIEVETPEELREKVGAALEAHPGETINVTATVKNEEEAEAIAEVLEELIDLAIEKGNTLNITLRGPKDVVNYAALLIGSHVFEHIDTANVSISTEVTP
# B24: LC3A_free_39_2237 (protein)
# chain: SMEEIDKLIKEIAEEGGIDYEYVREKLEEIKEIGELSDEQMLEIVKALLEAVKEGADAKEILEEILALTKELKAQGKSPEEILEAILETIEDYRNLVPLE
# B25: LC3A_28_791 (protein)
# chain: MEIEEQLERAREEVERALARGEEALVEIKVPSTTTLEDAKLLVEGLKEIAELGSSLPSLSIIIDVEGGLAQEVIDLLMEGGEEIEEKYPNVTVVIALEEE
# B26: LC3A_3_1914 (protein)
# chain: MEEELKELRELLKKLGHSEEVIEKFLEAAELLLKAGDKEGFELLKEMAKALKGLDESTQLAFAEDLLAELKKLGDDKEGRLKAAKHFLELAKNENEIIEI
# B27: LC3A_78_2089 (protein)
# chain: KSAFIVAATPETREEGERLAAKRTDYDEVVVVDLSDLEEVVTKYKDYDEIEVVIVAKTLEEVEEAEKKIKEILSDKNISSIYEYDEETGTWIGTVLVTKK
# B28: LC3A_3_1410 (protein)
# chain: LDEEVAALEALLRAAGHSEETIAAVRELVAEFRARGADEQAREALALVREAADLPSERLLEVLREVLRALREEGLSPEEAVALLRELLAIARAEQEIIEL
# B29: LC3A_3_1559 (protein)
# chain: IEEEKKKALEELKEAGKSEEVIKKAEETLNLLIEKGYEEAAKTFIEELKELIDLSDELLLDFLEEVLNYIKTKDLNEEEVIKKIKEIARITKNEGEIEEL
# Biological target: MAP1LC3A, Q9H492
# Experiment: median log2 fold change of GCK-ALFA target abundance (FLAG IP / Myc IP barcode read proportion) (log2 ratio); each designed protein is fused to an ALFA-tag nanobody in HEK293 cells to bring the named protein to FLAG-tagged glucokinase (GCK); Myc marks an untargeted standard; higher = target protein stabilised (more abundant)
# Conditions: target protein: 3xFLAG-MCP-GCK-ALFA reporter; HEK293 landing pad (RPLP)
# Outline: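 HEK293 landing-pad cells received a recombined binder library fused to the ALFA nanobody and were induced with 2 μg mL^−1 doxycycline, then transfected with a plasmid encoding a FLAG-tagged target and a Myc-tagged standard. Lysates were collected after 48 h for anti-FLAG and anti-Myc immunoprecipitation, and the circular RNA barcodes were reverse transcribed, amplified and sequenced. Target abundance for each binder is the median log2 ratio of FLAG to Myc barcode read proportions. Barcodes had to reach a proportion of at least 10^−7 in both replicates, each binder needed at least 3 barcodes per replicate, a pseudocount of 10^−6 was applied, and the two replicates were pooled.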
row,Binder,median log2 fold change
1,B1,-0.164
2,B2,-0.0655
3,B3,0.0186
4,B4,-0.341
5,B5,0.306
6,B6,0.0318
7,B7,-0.0885
8,B8,0.0169
9,B9,-0.272
10,B10,0.321
11,B11,-0.297
12,B12,0.243
13,B13,0.129
14,B14,-0.259
15,B15,-0.00837
16,B16,0.0947
17,B17,0.222
18,B18,0.204
19,B19,0.121
20,B20,0.0755
21,B21,0.146
22,B22,-0.27
23,B23,-0.0621
24,B24,0.0156
25,B25,0.117
26,B26,0.143
27,B27,0.0697
28,B28,0.205
29,B29,-0.0506
